Source: the supplement of paper PMC4967469

Key:
Assay in all cases: Viability of human cancer cell lines after 72 h of drug (GDSC screen)
[1] = compound: CC(C)c1ccccc1Cc1cc(C(=O)Nc2ccc(S(=O)(=O)c3ccccc3C(C)(C)C)cc2)c(O)c(O)c1O [TW-37]; details: top dose 5 µM
Description: (§1)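 Human cancer cell lines in 384-well plates, medium with 10% serum, drug for 72 h over a 256-fold dose range (nine 2-fold or five 4-fold steps up to the top dose). Adherent lines were fixed and stained with the nucleic acid dye Syto60, suspension lines read with resazurin; signal relative to control wells, capped at 0 and 100%. One two-parameter sigmoid per drug and line, fitted in a mixed model over all curves with the slope shared within a line.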

[2] = compound: CC(O)(CS(=O)(=O)c1ccc(F)cc1)C(=O)Nc1ccc(C#N)c(C(F)(F)F)c1 [Bicalutamide]; details: top dose inferred
Description: as §1

[3] = compound: C/C(O)=C(\C#N)C(=O)Nc1cc(Br)ccc1Br [LFM-A13]; details: top dose 16 µM; top dose inferred
Description: as §1

[4] = compound: O=S(=O)(c1ccccc1)N(CC(F)(F)F)c1ccc(C(O)(C(F)(F)F)C(F)(F)F)cc1 [T0901317]; details: top dose 10.24 µM; top dose inferred
Description: as §1

[5] = compound: Nc1ccn([C@@H]2O[C@H](CO)[C@@H](O)C2(F)F)c(=O)n1 [Gemcitabine]; details: top dose 1.024 µM
Description: as §1

[6] = compound: S=C(NCc1ccc2c(c1)OCO2)N1CCN(c2ncnc3c2oc2ccccc23)CC1 [MP470]; details: top dose 20 µM; top dose inferred
Description: as §1

[7] = compound: CCNC(=O)c1noc(-c2cc(C(C)C)c(O)cc2O)c1-c1ccc(CN2CCOCC2)cc1 [AUY922]; details: top dose 0.256 µM; top dose inferred
Description: as §1

[8] = compound: Cc1ccc(Nc2cc(-c3cccc(N4C(=O)c5ccccc5C4=O)c3)ncn2)cc1NS(C)(=O)=O [KIN001-270]; details: top dose 20 µM; top dose inferred
Description: as §1

[9] = top dose 10 µM, screen: GDSC drug entry 1502
[10] = top dose 1.024 µM, screen: GDSC drug entry 150

Cell Line | AUC [1] | IC50 [1] [µM] | AUC [2, 9] | IC50 [2, 9] [µM] | AUC [3] | IC50 [3] [µM] | AUC [4] | IC50 [4] [µM] | AUC [5] | IC50 [5] [µM] | AUC [2, 10] | IC50 [2, 10] [µM] | AUC [6] | IC50 [6] [µM] | AUC [7] | IC50 [7] [µM] | AUC [8] | IC50 [8] [µM]
A549 (lung adenocarcinoma, adherent) | 0.287 | 0.0719 | 0.966 | > 10 | – | – | – | – | – | – | – | – | – | – | – | – | – | –
COR-L32 (small cell lung carcinoma, suspension) | – | – | 0.949 | > 10 | – | – | – | – | – | – | – | – | – | – | – | – | – | –
G-MEL (melanoma, adherent) | – | – | 0.985 | > 10 | 0.952 | > 16 | 0.96 | > 10.2 | 0.839 | 0.686 | 0.973 | > 1.02 | 0.698 | 4.46 | 0.909 | > 0.256 | 0.983 | > 20
SNU-475 (liver, adherent) | – | – | – | – | 0.989 | > 16 | 0.984 | > 10.2 | 0.947 | > 1.02 | 0.989 | > 1.02 | 0.979 | > 20 | 0.938 | > 0.256 | 0.985 | > 20
SW1116 (large intestine, adherent) | 0.886 | > 5 | 0.967 | > 10 | – | – | 0.986 | > 10.2 | – | – | – | – | 0.985 | > 20 | – | – | 0.976 | > 20
SW1271 (small cell lung carcinoma, adherent) | 0.653 | 0.887 | 0.982 | > 10 | 0.958 | > 16 | 0.984 | > 10.2 | 0.325 | 0.0192 | 0.983 | > 1.02 | 0.94 | > 20 | – | – | 0.977 | > 20
JHOS-2 (ovary, adherent) | 0.477 | 0.268 | 0.98 | > 10 | – | – | 0.952 | > 10.2 | – | – | – | – | 0.925 | > 20 | – | – | 0.964 | > 20
JHOS-3 (ovary, adherent) | 0.811 | 3.62 | 0.974 | > 10 | – | – | 0.966 | > 10.2 | – | – | – | – | 0.95 | > 20 | – | – | 0.976 | > 20
EMC-BAC-2 (lung adenocarcinoma, adherent) | 0.522 | 0.363 | 0.949 | > 10 | – | – | 0.979 | > 10.2 | – | – | – | – | 0.948 | > 20 | – | – | 0.982 | > 20
SNU-175 (large intestine, suspension) | – | – | – | – | – | – | 0.966 | > 10.2 | – | – | – | – | 0.434 | 0.834 | – | – | 0.977 | > 20
OV-7 (ovary, adherent) | 0.643 | 0.956 | 0.915 | > 10 | – | – | 0.974 | > 10.2 | – | – | – | – | 0.922 | > 20 | – | – | 0.879 | > 20
RCC-ER (kidney, adherent) | 0.404 | 0.165 | 0.984 | > 10 | – | – | 0.986 | > 10.2 | – | – | – | – | 0.971 | > 20 | – | – | 0.985 | > 20

Lines with a small IC50 respond at low doses; fits outside the tested doses are given as limits. AUC is the area under the same curve over the 256-fold range up to the top dose, as a fraction: 1 means no effect, lower means more sensitive. For some of these results: Any top dose called inferred was calculated from the reported fits. For some of these results: Drugs with an entry number were screened twice under separate entries, and the two screens often disagree.
